{
  "source": "PubChem BioAssay (Tox21)",
  "key": {"[1]": {"experiment": "A CellTox Green Cytotoxicity Assay to monitor cytotoxicity in HEK293 cells - 40 hour (AID 1224871); further: potency means the concentration at half of the fitted maximal effect; nearly all actives have a fitted effect of over 45% in size", "conditions": "CellTox Green fluorescence; series mostly up to 76.8 µM", "method_in_brief": "(§1)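 Cells (HEK293, 600/well) and dye reagent are dispensed together. After 5 h at 37 C, 23 nL compound is pinned in. Plates stay at 37 C for 40 h with fluorescence read at 0h, 8h, 16h, 24h, 32h and 40h.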"}, "[2]": {"experiment": "qHTS RealTime-Glo MT Cell Viability Assay in HEK293 cells - 40 hour (AID 1224874)", "conditions": "RealTime-Glo luminescence; max response: hits give low values", "method_in_brief": "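Real-time viability in HEK293: signal arises when living cells convert a prosubstrate for NanoLuc in the medium, so luminescence tracks viable cell number. Compound (23 nL, DMSO) added 5 h post-seeding; kinetic reads at 0–40 h, 37 C.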"}, "[3]": {"experiment": "A CellTox Green Cytotoxicity Assay to monitor cytotoxicity in HEK293 cells - 24 hour (AID 1224875)", "conditions": "CellTox Green fluorescence; series mostly up to 76.8 µM", "method_in_brief": "as §1"}, "[4]": {"experiment": "A CellTox Green Cytotoxicity Assay to monitor cytotoxicity in HepG2 cells - 16 hour (AID 1224876)", "conditions": "CellTox Green fluorescence; series mostly up to 76.8 µM", "method_in_brief": "(§2)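 Cells and non-lytic dye reagent are dispensed together (600 HepG2 cells/well) and incubated 5 h before DMSO compound transfer. Kinetic fluorescence is then recorded in the same wells during 40 h at 37 C.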"}, "[5]": {"experiment": "A CellTox Green Cytotoxicity Assay to monitor cytotoxicity in HepG2 cells - 40 hour (AID 1224879)", "conditions": "CellTox Green fluorescence; series mostly up to 76.8 µM", "method_in_brief": "as §2"}, "[6]": {"experiment": "qHTS RealTime-Glo MT Cell Viability Assay in HEK293 cells - 16 hour (AID 1224872)", "conditions": "RealTime-Glo luminescence; series mostly up to 76.8 µM", "method_in_brief": "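Assay medium contained NanoLuc luciferase plus cell-permeant prosubstrate, added with HEK293 cells at 600 cells/well. After 5 h at 37 C/5% CO2 compounds were added; plates stayed at 37 C for 40 h with serial luminescence reads.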"}},
  "note": "Several values for one entry are separate records, joined by “and”; a condition that tells them apart may be missing. Equal values may be shown once. This list was built around the results that the source calls inconclusive (neither active nor inactive); the mix of calls is not that of the screen. For some assays here: A potency beside an inconclusive call is a rough fit, not a confirmed value. Some structures have more than one record in an assay (separate samples or runs), and their calls can disagree. Activity calls are given as the source filed them. The call rests on the fitted dose curve; in most records, active means well fitted curve in the direction sought with a large enough effect in the repeat runs; inconclusive means weak or mixed curves; inactive means no such curve, though single readings can be large; an effect the other way counts as inactive or inconclusive. Tags describe the fitted curve by direction and shape. Wherever max response is given: on the % scale 0 is the no-effect control and ±100 the full control effect; nearly all actives have a fitted effect of over 50% in size.",
  "data": [
    {"smiles": "CCOc1ccc2c(c1)C(C)CC(C)(C)N2", "note": "(configuration not stated)", "values": [
      {"measurement": "Potency", "setting": "[1]", "result": "inconclusive: 27.5 µM [activator, partial curve]"},
      {"measurement": "max response", "setting": "[2]", "result": "inactive: -1.9%"},
      {"measurement": "Potency", "setting": "[3]", "result": "inconclusive: 19.5 µM [activator, partial curve, poor fit]"},
      {"measurement": "Potency", "setting": "[4]", "result": "inconclusive: 43.6 µM [activator, partial curve]"},
      {"measurement": "Potency", "setting": "[5]", "result": "active: 43.6 µM"}
    ]},
    {"smiles": "COCCCOc1ccnc(CS(=O)c2nc3ccccc3[nH]2)c1C", "note": "(configuration not stated)", "values": [
      {"measurement": "Potency", "setting": "[1]", "result": "inconclusive: 54.7 µM [activator, single point]"},
      {"measurement": "Potency", "setting": "[6]", "result": "active: 10.9 µM"},
      {"measurement": "Potency", "setting": "[3]", "result": "inconclusive: 61.4 µM [activator, single point]"}
    ]},
    {"smiles": "CC(C)OP(=O)(CP(=O)(OC(C)C)OC(C)C)OC(C)C", "values": [
      {"measurement": "Potency", "setting": "[1]", "result": "inconclusive: 54.9 µM [activator, partial curve, poor fit]"},
      {"measurement": "max response", "setting": "[2]", "result": "inactive: 4.3% and inactive: 0.573%"},
      {"measurement": "Potency", "setting": "[3]", "result": "inconclusive: 61.6 µM [activator, single point]"}
    ]},
    {"smiles": "CC(=O)Nc1ccc(OC(=O)c2ccccc2OC(C)=O)cc1", "values": [
      {"measurement": "Potency", "setting": "[1]", "result": "inconclusive: 10.7 µM [activator, single point]"},
      {"measurement": "Potency", "setting": "[3]", "result": "inconclusive: 10.7 µM [activator, single point]"}
    ]},
    {"smiles": "ICCc1ccccc1", "values": [
      {"measurement": "Potency", "setting": "[1]", "result": "inconclusive: 30.3 µM [activator, partial curve, poor fit]"},
      {"measurement": "Potency", "setting": "[3]", "result": "inconclusive: 13.5 µM [activator, partial curve, poor fit]"}
    ]},
    {"smiles": "Nc1nccs1", "values": [
      {"measurement": "Potency", "setting": "[1]", "result": "inconclusive: 61.6 µM [activator, single point]"},
      {"measurement": "Potency", "setting": "[3]", "result": "inconclusive: 61.6 µM [activator, single point]"}
    ]}
  ]
}
